In article PMC4148588:
Positions count from the first letter of the chain named. Names may count otherwise. Results are given in words; binding and its absence hold for the method and conditions named. For part of these data: In cells and extracts the contact can be indirect. Some entries that bind do so weakly or less than the wild type. Sequences can lack the tags named with a protein.

Key:
[1] = target: Rpt6 (yeast two-hybrid fusion) (yeast) (UniProt Q01939); assay: two-hybrid; GAD and GBD fusions in yeast; growth on medium lacking uracil, leucine and histidine (-ULH), and also adenine (-ULHA) as stringent selection
[2] = target: T1, Rpt3 (yeast two-hybrid fusion) (yeast) (UniProt P33298); assay: as above
T1 sequence: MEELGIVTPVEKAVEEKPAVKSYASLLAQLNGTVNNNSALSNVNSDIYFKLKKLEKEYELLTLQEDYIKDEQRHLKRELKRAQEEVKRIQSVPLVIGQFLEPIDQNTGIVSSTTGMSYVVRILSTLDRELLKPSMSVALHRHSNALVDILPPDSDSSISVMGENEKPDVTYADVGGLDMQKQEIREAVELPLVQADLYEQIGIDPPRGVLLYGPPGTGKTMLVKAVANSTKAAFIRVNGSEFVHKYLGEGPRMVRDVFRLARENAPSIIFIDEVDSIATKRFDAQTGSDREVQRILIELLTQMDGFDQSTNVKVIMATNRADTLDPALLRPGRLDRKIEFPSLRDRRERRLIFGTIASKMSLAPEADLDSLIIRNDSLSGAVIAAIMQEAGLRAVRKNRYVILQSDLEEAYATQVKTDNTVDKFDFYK

[3] = target: T2, GST-Rpt3-NT (1-162) (yeast) (UniProt P33298); assay: pull-down; the two proteins coexpressed in E. coli, purified on Ni-NTA or glutathione Sepharose 4B; lysis buffer 25 mM Tris-HCl pH 8.0, 300 mM NaCl, 10% glycerol; SDS-PAGE, Coomassie blue
T2 sequence: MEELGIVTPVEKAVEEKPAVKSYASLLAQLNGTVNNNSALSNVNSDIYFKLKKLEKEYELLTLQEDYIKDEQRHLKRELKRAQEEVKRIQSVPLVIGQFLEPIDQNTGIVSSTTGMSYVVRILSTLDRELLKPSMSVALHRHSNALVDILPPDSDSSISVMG

[4] = target: T3, GST-Rpt6-NT (1-152) (yeast) (UniProt Q01939); assay: as above
T3 sequence: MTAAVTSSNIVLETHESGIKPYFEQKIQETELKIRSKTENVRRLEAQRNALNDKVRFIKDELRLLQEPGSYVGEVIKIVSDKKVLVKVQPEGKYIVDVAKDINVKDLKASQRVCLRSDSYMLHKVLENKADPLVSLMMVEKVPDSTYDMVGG

[5] = target: T4, Rpt6-NT-MBP (1-140) (yeast) (UniProt Q01939); assay: pull-down + SEC; Rpt6-NT-MBP, Rpt3-NT-GST and His-Adc17 coexpressed in E. coli, purified on amylose resin, eluted with maltose, gel filtration on Superdex 200 10/300 GL in 25 mM Tris-HCl pH 8.0, 100 mM NaCl; identity of proteins confirmed by mass spectrometry
T4 sequence: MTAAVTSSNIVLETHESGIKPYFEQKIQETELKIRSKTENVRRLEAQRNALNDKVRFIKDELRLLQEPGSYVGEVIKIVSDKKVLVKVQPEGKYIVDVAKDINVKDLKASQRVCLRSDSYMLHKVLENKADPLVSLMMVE

B1: Adc17 (yeast two-hybrid fusion) (protein, UniProt Q12513 1-150)
chain: MCSAGGIRRPIQIEEFKTAISGMSDMELAQIKTEIENSINHLQRSNARLGKYIAKLEGADDRLEADDSDDLENIDSGDLALYKDSVRENEIVLNNYNERVDALEQETVYRKTGHGKSKHEVEAKDNTNKGPDVDMDNSNVDVVTPNSIFI
binding [1]: binds | binding [2]: no binding

B2: His-Adc17 (protein, UniProt Q12513 1-150)
chain: B1 chain
binding [3]: no binding | binding [4]: binds | binding [5]: binds

B3: His-Adc17 L93D (protein, UniProt Q12513 1-150)
chain: B1 chain with L93D
binding [4]: no binding
